Reference: a collection of fitness landscapes (doi:10.1126/science.1257360)
The other results are listed elsewhere or left out.

B1: PhoQ; a variant is named by its letters at X, in order, P23837 (parent)
chain: MKKLLRLFFPLSLRVRFLLATAAVVLVLSLAYGMVALIGYSVSFDKTTFRLLRGESNLFYTLAKWENNKLHVELPENIDKQSPTMTLIYDENGQLLWAQRDVPWLMKMIQPDWLKSNGFHEIEADVNDTSLLLSGDHSIQQQLQEVREDDDDAEMTHSVAVNVYPATSRMPKLTIVVVDTIPVELKSSYMVWSWFIYVLSANLLLVIPLLWVAAWWSLRPIEALAKEVRELEEHNRELLNPATTRELTSLVRNLNRLLKSERERYDKYRTTLTDLTHSLKTPLXXLQXXLRSLRSEKMSVSDAEPVMLEQISRISQQIGYYLHRASMRGGTLLSRELHPVAPLLDNLTSALNKVYQRKGVNISLDISPEISFVGEQNDFVEVMGNVLDNACKYCLEFVEISARQTDEHLYIVVEDDGPGIPLSKREVIFDRGQRVDTLRPGQGVGLAVAREITEQYEGKIVAGESMLGGARMEVIFGRQHSAPKDE

Variants of: B1
Assay: enrichment ratio after two sorts for PhoP signalling (ratio (wild type AVST 3.29)); higher = more functional
Details: with PhoP (E. coli)

| Variant | enrichment ratio |
| --- | --- |
| NPIV | ≤ 0.25 |
| QTCP | ≤ 0.25 |
| QMLY | ≤ 0.25 |
| GKQF | ≤ 0.25 |
| HSPK | ≤ 0.25 |
| AWAR | ≤ 0.25 |
| DECG | ≤ 0.25 |
| IAAK | ≤ 0.25 |
| LLYY | ≤ 0.25 |
| VWRH | ≤ 0.25 |
| ACNR | 0.959 |
| WFKE | ≤ 0.25 |
| KDTC | ≤ 0.25 |
| MNWF | ≤ 0.25 |
| KQLQ | ≤ 0.25 |
| IRTD | ≤ 0.25 |
| HGWE | ≤ 0.25 |
| SQTP | ≤ 0.25 |
| RKHP | ≤ 0.25 |
| ARKA | ≤ 0.25 |
| SHGF | 0.668 |
| MYLN | ≤ 0.25 |
| NVCK | ≤ 0.25 |
| CQFL | ≤ 0.25 |

| Variant | enrichment ratio |
| --- | --- |
| FFQS | ≤ 0.25 |
| WSKS | ≤ 0.25 |
| YESP | ≤ 0.25 |
| GDIH | 0.828 |
| VDCS | ≤ 0.25 |
| VELL | 0.435 |
| EPQQ | ≤ 0.25 |
| GQVY | ≤ 0.25 |
| QHTN | ≤ 0.25 |
| PSVS | ≤ 0.25 |
| KKQP | ≤ 0.25 |
| LQDV | ≤ 0.25 |
| GVTN | ≤ 0.25 |
| RKMS | ≤ 0.25 |
| LWEV | ≤ 0.25 |
| VLQH | ≤ 0.25 |
| LNDP | ≤ 0.25 |
| TFGG | ≤ 0.25 |
| SYGW | ≤ 0.25 |
| PDTI | ≤ 0.25 |
| NSVS | ≤ 0.25 |
| PAVG | ≤ 0.25 |
| LGSF | ≤ 0.25 |
| KSAA | ≤ 0.25 |

| Variant | enrichment ratio |
| --- | --- |
| DQSE | ≤ 0.25 |
| CTYV | ≤ 0.25 |
| DHRE | ≤ 0.25 |
| RQCH | ≤ 0.25 |
| DHRK | ≤ 0.25 |
| NQFW | ≤ 0.25 |
| KIRC | ≤ 0.25 |
| GFLT | ≤ 0.25 |
| QIVR | ≤ 0.25 |
| VYCN | ≤ 0.25 |
| VWIG | ≤ 0.25 |
| VAPN | ≤ 0.25 |
| GQSY | ≤ 0.25 |
| TFAV | 0.261 |
| TKVY | 4.34 |
| SIDR | ≤ 0.25 |
| IFKY | ≤ 0.25 |
| HECN | ≤ 0.25 |
| AKSD | ≤ 0.25 |
| KCLK | ≤ 0.25 |
| HNYS | ≤ 0.25 |
| GQES | ≤ 0.25 |
| GRDI | ≤ 0.25 |
| HPWC | ≤ 0.25 |

| Variant | enrichment ratio |
| --- | --- |
| PTIP | ≤ 0.25 |
| ENNF | ≤ 0.25 |
| IHFV | ≤ 0.25 |
| IRYV | ≤ 0.25 |
| LWTK | ≤ 0.25 |
| CSCP | ≤ 0.25 |
| QGRM | ≤ 0.25 |
| GKCA | ≤ 0.25 |
| GSEM | ≤ 0.25 |
| VFVQ | ≤ 0.25 |
| CPCY | ≤ 0.25 |
| VNNI | ≤ 0.25 |
| NYAN | ≤ 0.25 |
| PNTC | ≤ 0.25 |
| SPFL | ≤ 0.25 |
| HYSA | ≤ 0.25 |
| SFCA | 1.59 |
| AFVA | ≤ 0.25 |
| EERI | ≤ 0.25 |
| MTRM | ≤ 0.25 |
| WPPQ | ≤ 0.25 |
| HDPY | ≤ 0.25 |
| QMVY | ≤ 0.25 |
| HLQK | ≤ 0.25 |

| Variant | enrichment ratio |
| --- | --- |
| KGNE | ≤ 0.25 |
| RITR | ≤ 0.25 |
| NGEM | ≤ 0.25 |
| WKEP | ≤ 0.25 |
| DTKM | ≤ 0.25 |
| SRWA | ≤ 0.25 |
| DTSF | ≤ 0.25 |
| YGMV | 8.94 |
| IHHY | ≤ 0.25 |
| NQPV | ≤ 0.25 |
| RAQR | ≤ 0.25 |
| WDDY | ≤ 0.25 |
| EYLI | 1.25 |
| NSIA | ≤ 0.25 |
| YTTA | ≤ 0.25 |
| RFKT | ≤ 0.25 |
| RVSH | ≤ 0.25 |
| MVTK | ≤ 0.25 |
| GPCV | ≤ 0.25 |
| QGVR | ≤ 0.25 |
| IWDC | ≤ 0.25 |
| IRPC | ≤ 0.25 |
| PGMY | ≤ 0.25 |
| PTMG | ≤ 0.25 |

| Variant | enrichment ratio |
| --- | --- |
| LVSY | ≤ 0.25 |
| IICK | ≤ 0.25 |
| HDTH | ≤ 0.25 |
| MRQF | ≤ 0.25 |
| TSFE | ≤ 0.25 |
| TTPG | ≤ 0.25 |
| SPKL | ≤ 0.25 |
| GFHC | ≤ 0.25 |
| LSQS | ≤ 0.25 |
| ENIG | ≤ 0.25 |
| EDVC | ≤ 0.25 |
| PRDQ | ≤ 0.25 |
| LLPM | ≤ 0.25 |
| PHFK | ≤ 0.25 |
| WFDP | ≤ 0.25 |
| DNEL | ≤ 0.25 |
| AYHW | ≤ 0.25 |
| ISQI | ≤ 0.25 |
| HHPV | ≤ 0.25 |
| QDHP | ≤ 0.25 |
| FWAF | ≤ 0.25 |
| SREC | ≤ 0.25 |
| GVDW | ≤ 0.25 |
| AYCH | 0.342 |

| Variant | enrichment ratio |
| --- | --- |
| GSYQ | ≤ 0.25 |
| NHSL | ≤ 0.25 |
| MYNC | ≤ 0.25 |
| FFRS | ≤ 0.25 |
| QPNN | ≤ 0.25 |
| KKNF | ≤ 0.25 |
| GIYR | ≤ 0.25 |
| YDRM | ≤ 0.25 |
| RFEV | ≤ 0.25 |
| KMCC | ≤ 0.25 |
| QHNF | 3.83 |
| YNDG | ≤ 0.25 |
| KAPD | ≤ 0.25 |
| CLFS | ≤ 0.25 |
| WEGS | ≤ 0.25 |
| GDCC | ≤ 0.25 |
| FGWY | ≤ 0.25 |
| LGVF | ≤ 0.25 |
| GLSN | ≤ 0.25 |
| YACP | ≤ 0.25 |
| LGYS | ≤ 0.25 |
| HIFF | ≤ 0.25 |
| TWRC | ≤ 0.25 |
| NSHH | ≤ 0.25 |

| Variant | enrichment ratio |
| --- | --- |
| GTDK | ≤ 0.25 |
| WNWN | ≤ 0.25 |
| PLWR | ≤ 0.25 |
| LYVI | ≤ 0.25 |
| FKVV | ≤ 0.25 |
| SLNF | 1.82 |
| VNEP | ≤ 0.25 |
| QLGY | ≤ 0.25 |
| VMLM | ≤ 0.25 |
| FEGL | ≤ 0.25 |
| MQFE | ≤ 0.25 |
| GSTG | ≤ 0.25 |
| PPKF | ≤ 0.25 |
| GEMC | ≤ 0.25 |
| EQNP | ≤ 0.25 |
| WNKM | ≤ 0.25 |
| QRTH | ≤ 0.25 |
| KSKY | ≤ 0.25 |
| SYEK | ≤ 0.25 |
| RVDL | ≤ 0.25 |
| PWCR | ≤ 0.25 |
| QMWS | ≤ 0.25 |
| NSGQ | ≤ 0.25 |
| KGWY | ≤ 0.25 |

| Variant | enrichment ratio |
| --- | --- |
| YRIK | ≤ 0.25 |
| HMGI | ≤ 0.25 |
| WLWP | ≤ 0.25 |
| YARQ | ≤ 0.25 |
| SCQI | 1.62 |
| QYLD | ≤ 0.25 |
| QGMK | ≤ 0.25 |
| GITR | 0.626 |
| AKQL | ≤ 0.25 |
| TRVY | 1.64 |
| TIHF | ≤ 0.25 |
| QYHA | ≤ 0.25 |
| DAGN | ≤ 0.25 |
| AVCW | ≤ 0.25 |
| PFQN | ≤ 0.25 |
| DEPS | ≤ 0.25 |
| KQEV | ≤ 0.25 |
| VRHN | ≤ 0.25 |
| EHIW | ≤ 0.25 |
| HTMW | ≤ 0.25 |
| YYLK | ≤ 0.25 |
| HMWA | ≤ 0.25 |
| MSYV | 6.21 |
| GHQN | ≤ 0.25 |

| Variant | enrichment ratio |
| --- | --- |
| DPSG | ≤ 0.25 |
| EMHR | ≤ 0.25 |
| PDSC | ≤ 0.25 |
| FWNQ | ≤ 0.25 |
| SVYR | ≤ 0.25 |
| QTSG | 6.17 |
| KAGW | ≤ 0.25 |
| GMVC | ≤ 0.25 |
| WKNH | ≤ 0.25 |
| RYAF | ≤ 0.25 |
| NTRG | ≤ 0.25 |
| ANLE | ≤ 0.25 |
| VRPR | ≤ 0.25 |
| KHPN | ≤ 0.25 |
| ELHV | ≤ 0.25 |
| REPL | ≤ 0.25 |
| YIKR | ≤ 0.25 |
| DPQA | ≤ 0.25 |
| PYHM | ≤ 0.25 |
| FDCV | ≤ 0.25 |
| HQWK | ≤ 0.25 |
| DKTY | ≤ 0.25 |
| HIPN | ≤ 0.25 |
| YGWQ | ≤ 0.25 |

| Variant | enrichment ratio |
| --- | --- |
| WLVR | ≤ 0.25 |
| MAEH | ≤ 0.25 |
| AIWF | ≤ 0.25 |
| RRSA | ≤ 0.25 |
| VHRD | ≤ 0.25 |
| SWMK | ≤ 0.25 |
| IRRI | ≤ 0.25 |
| TYMT | ≤ 0.25 |
| ICIH | ≤ 0.25 |
| YKEC | ≤ 0.25 |
| NVFK | ≤ 0.25 |
| QGTA | ≤ 0.25 |
| KNLI | ≤ 0.25 |
| DPFG | 0.261 |
| NRAL | ≤ 0.25 |
| DLGT | ≤ 0.25 |
| IWVH | ≤ 0.25 |
| SPHV | ≤ 0.25 |
| SNHN | ≤ 0.25 |
| PLCV | ≤ 0.25 |
| FHLQ | ≤ 0.25 |
| QRAN | ≤ 0.25 |
| YGCI | 5.12 |
| KFPR | ≤ 0.25 |

| Variant | enrichment ratio |
| --- | --- |
| SYII | ≤ 0.25 |
| LDMH | ≤ 0.25 |
| ICQV | ≤ 0.25 |
| SYQM | ≤ 0.25 |
| YDGA | ≤ 0.25 |
| IEYY | ≤ 0.25 |
| INMV | 24.2 |
| WHTQ | ≤ 0.25 |
| QGAK | ≤ 0.25 |
| ESIV | ≤ 0.25 |
| NPDY | ≤ 0.25 |
| TFFP | ≤ 0.25 |
| HSLG | 3.08 |
| YGAW | ≤ 0.25 |
| RNYW | ≤ 0.25 |
| WYCK | ≤ 0.25 |
| IYCQ | ≤ 0.25 |
| LCRQ | ≤ 0.25 |
| TQYS | 12.5 |
| MDTC | ≤ 0.25 |
| RTCF | ≤ 0.25 |
| KIYN | ≤ 0.25 |
| RMFG | ≤ 0.25 |
| WFKD | ≤ 0.25 |

| Variant | enrichment ratio |
| --- | --- |
| YFTT | ≤ 0.25 |
| MVHC | ≤ 0.25 |
| VLYA | ≤ 0.25 |
| VCSY | ≤ 0.25 |
| RSWR | ≤ 0.25 |
| THKE | ≤ 0.25 |
| LCFP | ≤ 0.25 |
| AWVF | ≤ 0.25 |
| YYCF | ≤ 0.25 |
| KSSF | ≤ 0.25 |
| GTIL | 10.9 |
| WRIY | ≤ 0.25 |
| CYAY | ≤ 0.25 |
| SCDS | ≤ 0.25 |
| MLRW | ≤ 0.25 |
| HMGP | ≤ 0.25 |
| AYFS | ≤ 0.25 |
| IACF | ≤ 0.25 |
